{"source": "PubChem BioAssay (NCI)", "system": "MDA-MB-468 breast", "test": "NCI-60 cell line screen, 48 h", "note": "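Grown in 96-well plates, cells were treated for 48 hours with each compound at five concentrations. Insufficient inhibition: endpoint recorded as highest concentration tested. TGI marks complete inhibition of growth.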 Some entries of the source have several records that differ or are many. This list holds those alone. There may be further records. Records of one sample usually come from different ranges of test concentrations, which the source does not state; some values may only mark the edge of a range."}
{"smiles": "Cc1cc(C)cc(Nc2ccc([N+](=O)[O-])c(NCCN3CCOCC3)n2)c1", "values": [{"measurement": "TGI", "result": "2.93 nM and 1.69 µM"}]}
